# Measured values from the supplement of paper PMC11417369.
# ± gives the standard deviation of the averaged measurements. This is one part of the list.
# System: PfAP2-EXP AP2 domain (GST-tagged)
# Test: gcPBM binding intensity (ln(normalized median fluorescence intensity)); higher = stronger DNA binding
# How it was run: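 An Agilent 4 × 180k array of primer-extended double-stranded 36-bp intergenic genomic probes, with negative controls, was incubated for 1 h with GST-tagged P. falciparum DNA-binding domains expressed in E. coli. Alexa488 anti-GST antibody detected bound protein, scanned at 488 nm. Binding intensity is the highest Masliner-normalised natural-log median intensity across replicate spots of either probe orientation.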
row,Sequence,gcPBM binding intensity (ln)
1,TTTTTAAAATTTTTAAAAATATTATGTTAAATATAT [CACACA_negctrl_site415],8.12 ± 0.47
2,TATGTATGTTAGTGTGCACACATAAATATTATATAT [CACACA_site9121],8.81 ± 0.31
3,ACATATGAAAAATATGCATGCAAATATTATTTAACA [TGCATGCA_site802],9.93 ± 0.37
4,ATATATATGTATTTATGTACATATTATTTTTCTTAA [XGTACX_site8169],8.33 ± 0.24
5,TTGAAAGAAAATAAAATAAAATAAAATAAAATAAAA [CACACA_negctrl_site859],8.37 ± 0.37
6,AAAAAAAAAAAAATCTCACACATAAAGAGATTATGA [CACACA_site4408],8.1 ± 0.59
7,AATAAATAAAAATATATATATATAATATACATGTGT [TGCATGCA_negctrl_site369],8.69 ± 0.44
8,GGATGTATTTATATGTGTATGTGTTTGGAAATATGT [XGTACX_negctrl_site99],8.72 ± 0.54
9,TTTTATTTCAATCCACAAGGGATAAAATAAAGTTTT [CACACA_negctrl_site699],7.98 ± 0.38
10,TATAAATTATATATTTGTACGTATATCACATATATA [XGTACX_site7053],8.4 ± 0.33
11,TACATGAATATATAAAGAAAAAAAAAAAAACACACA [XGTACX_negctrl_site350],8.66 ± 0.47
12,TTCTCATAATTAAATAGTACATATTTTAATAATCAC [XGTACX_site6116],8.41 ± 0.28
13,TATATGTTATATTTAACACACATATAAGGTACATAT [CACACA_site612],8.6 ± 0.27
14,TTTATTGAATAAAATGCACACGCATGCGTTATTTAT [CACACA_site9154],9.01 ± 0.23
15,TTTTATAAACAGAGGGGTACGGGAAAAAAAAAAAAA [XGTACX_site1480],8.7 ± 0.73
16,TGTTAAAGAGAAAGTACTACACATATTATGTGTTTT [XGTACX_site1435],8.34 ± 0.35
17,TTTTTAAACCATGTTGTGCACATTTTTTTTGGATTT,8.95 ± 0.19
18,TTAAAAAAAATTATTTGTACTTAAAAATTTTATATT [XGTACX_site8751],8.06 ± 0.26
19,AGAAAAAAAAAACACACACACACACCGTCAATATAA [CACACA_site7895],8.53 ± 0.64
20,AAAATTATATATTATAGTACATAAAATTTTGATATA [XGTACX_site994],8.39 ± 0.35
21,TTTGTACCGGCATTTTTTTTTTCTTTTTTTTTCCAA [XGTACX_negctrl_site323],8.57 ± 0.46
22,TTAGTTATTATAATTTGTACACAAATGGTAAAGTAT [XGTACX_site2343],8.54 ± 0.15
23,TATTAAAAATGTTAAGTGCAAAAATAAAAATTGTGG [GTGCAC_site9854],8.85 ± 0.099

row,Sequence,gcPBM binding intensity (ln)
1,ATAGATAAATTTACGGGTACTAAAATGGAATATGAA [XGTACX_site8637],8.97 ± 0.42
2,ATTCACATATTATCTTTACACACTATATATAAGTTT [CACACA_site8901],8.74 ± 0.47
3,TGTGTTCAGTATTGCACACACACAACCAAATAAAAA [CACACA_site379],8.53 ± 0.37
4,TATTTTACAATAACAATACACACTATAATATATATA [CACACA_site1391],8.68 ± 0.28
5,CATCAAAATGCTACATGTACATATATATAATATATT [XGTACX_site5207],8.69 ± 0.26
6,GAAATGAACAAGTGGGTGCGTATTAATTACATATTA,8.88 ± 0.39
7,AATATATATAAATAAACACACACAAATATAATAAAA [CACACA_site9176],8.82 ± 0.49
8,TTTTTAATTTTTTTTAAACACACACCGTACATTCAA [CACACA_site7925],8.54 ± 0.38
9,TCATTTTAAATATGTGTGCACGTTATAATTTACACA,8.88 ± 0.25
10,TATATATATACATATTGTACATATTACATGCTATTA [XGTACX_site1184],9.085 ± 0.007
11,CATTTTCATTTTAAGGTGCATTAATATTTATTTTAA [GTGCAC_site9437],8.81 ± 0.19
12,TATATACTTTATAAATGTACATATAATGTATTATTT [XGTACX_site7313],8.34 ± 0.42
13,CAAATTGGGAAATTTTGTACATATAATAAGGATACC [XGTACX_site7728],8.79 ± 0.38
14,GATAATGAATGATGCACACTAAAAATATTCTACAAC [CACACA_site3622],8.71 ± 0.34
15,CCGTATATTTTATATAGTACTCATCATATATTTTTA [XGTACX_site5560],8.48 ± 0.36
16,AAACTCTCTTATATTAAACACACATATATATATGTA [CACACA_site8865],8.44 ± 0.28
17,CCTTTATTAAATAAATGTACATATTTTTGTGTTCTT [XGTACX_site2052],8.59 ± 0.28
18,AAACAAAAGATATATACACACTAAACATAAAAAAAA [CACACA_site6161],8.66 ± 0.45
19,AAAAACTTTTCAAGTAGTACCATATCTACAATAGTA [XGTACX_site8927],8.18 ± 0.4
20,AATAAAAATAAAATTGTATATTTTAAATGAAAATAA [CACACA_negctrl_site898],8.28 ± 0.44
21,GTTGGTAGGATGTATGGTACACGTAGTATTTTTCTT [XGTACX_site2],8.77 ± 0.41
22,TTCAAGATTTATTATACACACATATTAAAATATATA [CACACA_site4479],8.27 ± 0.26
